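1) Cells in 96-well plates. 2) Compound, 48 h, 5 concentrations. 3) Linear interpolation between surrounding doses. 4) Unreached endpoint = highest concentration. Here, GI50 denotes the concentration required for 50% inhibition of growth. TGI: total growth inhibition.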

The test system of this assay is NCI-H322M lung. Briefly: DTP human tumour cell line panel, 48 h.
With `CN(C)CCOc1ccc(C(=O)C2[C@H](c3ccc(Cl)cc3)[C@@H](c3ccccc3)NC23C(=O)Nc2ccc(Cl)cc23)cc1` (stereo not given in full), the GI50 was 13.2 µM and the TGI is 26 µM.

Consider `CC12CCC3(CCC(=O)NCCCNc4ccnc5cc(Cl)ccc45)[C@@](C)(OO[C@]3(C)O1)O2`, for which the GI50 is 6.52 µM and the TGI is more than 25.5 µM.

Regarding `Cc1ccc(Nc2nnc(-c3c[nH]c4ccccc34)o2)c(C)c1`, the GI50 was 1.62 µM and the TGI was more than 100 µM.

`C=CC[Se]C(=O)c1cncc(C(=O)[Se]CC=C)c1`: the GI50 was 0.298 µM and the TGI stood at 1.17 µM.

`N#CC1=C(c2cccs2)Nc2c(c(-c3ccccc3)nn2-c2ccccc2)C12C(=O)Nc1ccccc12` (stereo not given): the GI50 was 38.7 µM and the TGI was more than 100 µM.

By GI50 is commonly meant the concentration at which growth is held to half of that of the control. In general, TGI refers to the concentration giving total growth inhibition.

The record behind these values is PubChem BioAssay (NCI).
